B1: tRNA (parent)
chain: CUCUCGGUAGCCAAGUUGGUUUAAGGCGCAAGACUUUAAUUUAUCACUACGAAAUCUUGAGAUCGGGCGUUCGACUCGCCCCCGGGAGAUUUUUUCCUCGAGCAA

Variants at the background level are over-represented here. A value given as a limit tells only on which side of the number the result lay.

Nonsense suppression data for 27 variants are collected here from the RNAGym collection of RNA variant scans (doi:10.1101/gad.245936.114).

Variants of B1 are the subject of this data set. As to the kind of experiment: nonsense suppression (GFP-seq) (ratio to wild type); higher = more function; SUP4oc tRNA, yeast GFP reporter sort-seq. An outline of the steps: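 Raffinose/galactose medium with 80 mg/L adenine was used to grow yeast carrying genome-integrated tRNA variants (~3% random-mutation library), RFP, and a galactose-driven GFP ochre reporter. Cells went into GFP/RFP bins, which were Illumina-sequenced, and variants with ≥100 reads and ≥30 cells were scored. Nonsense suppression (GFPSEQ) is the per-bin median GFP/RFP weighted by estimated cell share and expressed relative to the unmutated parent tRNA.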
On to CACUCGGUAGCCAAGUUGGUUAAAGGCGCAAGACUUUAAUUUAUCACUACGAAAACUUAAGAUCGGGCAUUCGACUCGCCCCCGGGAGAUUUUUUCCUCGAGCAA [U2A U22A U55A G59A G69A], for which the nonsense suppression is at most 0.026.

CACGCGGUAGCCUAGUUGGUUCAAGGCGCAAGGCUUUAAUUUAUCACUACGAAAUCUUGAGAUCGGGCGUUCGACUCGCCCCCGGGAGAUUUUUUCCUCGAGCAA [U2A U4G A13U U22C A33G]: the nonsense suppression is at most 0.026.

As to CUCUCUGUUGCCAAGUUGGUUUAAGGCGCAAGACUUUAAUUUAUCACUACGAAAUCUUGAGAUCGGGCGUUCGACUCGCCCCCGGGAGAUUUUUUCCUCGAGCAA [G6U A9U], the nonsense suppression was found to be 0.0343.

As to CUCUCGGUAGCCAAGUUGGUUUAAGGCGCAAGUCUUUAAUUUAUCACUACGAAAUCUUGAGAUAGGGCGUUCGACUCGCCCCCGGGAAAUUUUUUCCUCGAGCAA [A33U C64A G88A], the nonsense suppression was at most 0.026.

Regarding CUCUCGGUAGCCGAGUUGGUUUGAGGCGCAAGACUUUAAUUUAUCACUACGAAAUCUUGAGAUCGGUCGUUCGACUCGCCCCCGGGAGAUUUUUUCCUCGAGCAA [A13G A23G G67U], the nonsense suppression was at most 0.026.

CCCUCUGUAGCCAAGUUGGUUUAAGGCGUAAGACUUUAAUUUAUCACUACGAAAUCUUGAGAUCGGGCGUUCGACUCGCCCCCGGGAGAUUUUUUCCUCGAGCAA [U2C G6U C29U]: the nonsense suppression is at most 0.026.

Turning to CUCUCGGUAACCAAGUUGGUUUAAGGCGCAAGACUUUAAUUUAUCACUACGAAAUCUUGAGAUCUGGAGUUCGACUCGCCCACGGGAGAUUUUUUCCUCGAGCAA [G10A G65U C68A C82A], the nonsense suppression was at most 0.026.

As to CUCUCGGUAGCCAAGUUGGUUUAAGGCGGAAGACUUUAAUUUAUCACUACGAAAUCUGGAGAUCGGGCGUUCGACUCGCCCCCGGGAGAUUUUUUCCUCGAGCAA [C29G U58G], the nonsense suppression was at most 0.026.

For CUCUCGGUCGCCAAGUUGGUUUAAGGCGCAAGACUUUAAUUUAUCACUACGAAAUCUUGAGAUUGGGCGCUCGACUCGCCCCCGGGAGAUUUUUUCCUCGAGCAA [A9C C64U U70C], the nonsense suppression was at most 0.026.

Consider CUCUUGGUAGCCAAGUUGGUUUAAGGUGCAAGACUUUAAUUUAUCACUACGAAAUCUUGAGAUCGGGCGCUCGACUCGCCCCCGGGAGAUUUUUUCCUCGAGCAA [C5U C27U U70C], for which the nonsense suppression is at most 0.026.

For the variant CUCUCGGUAGCCAAGUUGGUUUAAGGCGCAAGACUUUAAUUUAUCACUACGAAAUCUUGAGCCCGGGAGAUCGACUCGCCCCCGGGAGAUUUUUUCCUCGAGCAA [A62C U63C C68A U70A], the nonsense suppression was at most 0.026.

Consider CUCUCGGUAGCGAAGCUGGUUUAAGGCGCAAGACUUUAAUUUAUCACUACGAAAUCUUGAGAUCGGGCGUUCGACUCGCCCCCGGGAGAUUUUUUCCUCGAGCAA [C12G U16C], for which the nonsense suppression was at most 0.026.

For the variant CUCUCGGUAGCCAAGUUGGUUUAAGGCGCAGGACUUUAAUUUAUCACUACGAAAUCAUGAGAUCGGGCGUUCGACUCGCCCCCGGGAGAUUUUUUCCUCGAGCAA [A31G U57A], the nonsense suppression came to 0.136.

On to CUCUCGGUAGCCAAGUUGGUUUAAGACGCAAGACUUUAAUUUAUCACUACGAAAUUUUGAGAUCGGGCGUUCAACUCGCCCCCGGGAGAUUUUUUCCUCGAGCAA [G26A C56U G73A], for which the nonsense suppression was at most 0.026.

CUCUCGGUAGCCAAGUUGGUUUAAGGCGCAAGACUUUAAUUUAUCACUACGAAAUCCUGAGAUCCGGCGUUCGACUCGCCCCCGGGAGAUUUUUUCCUCGAGCAA [U57C G65C]: the nonsense suppression was at most 0.026.

Take UUCUCGGUAGCCAAGUUGGUUUAAGGCGCAACACUUUAAUUUAUCACUACGAAAUCAUGAGAUCGGGCGGUCGACUCGCCCCCGGGAGAUUUUUUCCUCGAGCAA [C1U G32C U57A U70G]: the nonsense suppression was at most 0.026.

In the case of CUCUCGGUAGCCAAGUUGGUUUAAGGCGCAAGAGUUUAAUUUAUCACUACGAAAUCCUGAGAUCGGGCGUUCGACUCGCCCCCGGGAGAUUUUUUCCUCGAGCAA [C34G U57C], the nonsense suppression was at most 0.026.

As to CUCUCGGUAGCCAAUUUGGUUUAAGGCGCUAGACUUUAAUUUAUCACUACGAAAUCUUGAGAUCGGGCGUUCGACUCGCCCCCGGGAGAUUUUUUCCUCGAGCAA [G15U A30U], the nonsense suppression was at most 0.026.

With CUCUCGGUAGCCAAGUUGGUUUAAGGCGGAAGACUUUAAUUUAUCACUACGAAAUCUUGAGAUCGGGCGUUCGAGACGCCCCCGGGAGAUUUUUUCCUCGAGCAA [C29G C75G U76A], the nonsense suppression was at most 0.026.

Regarding CUCUCGGUAGCCAAGUUGCUUUAAAGCGCAAAACUUUAAUUUAUCACUACGAAAUCUUGAGAUCGGGCGUUCGACUCGCCCCCGGGAGAUUUUUUCCUCGAGCAA [G19C G25A G32A], the nonsense suppression was at most 0.026.

Take CUCUCGGUAGCCUAGUUGGUUUAAGGCGCAAGAGGUUAAUUUAUCACUACGAAAUCUUGAGAUCGGGCGUUCGACUCGCCCCCGGGAUAUUUUUUCCUCGAGCAA [A13U C34G U35G G88U]: the nonsense suppression is at most 0.026.

Regarding CUCUCGGUAGCCAAGUUGGUUUAAGGCGCAAGACUUUAAUUUAUCACUACGAAAUCUUGAGAUCGGGCGUUCGAAUCGCUCCCGGGAGAUUUUUUCCUCGAGCAA [C75A C80U], the nonsense suppression was 1.01.

Take CUCUCGGUAGCCAAGUUCGUUUAAGGCGCAACACUUUAAUUUAUCACUACGAAAUCUUGAGAUCGGGCGGUCGACUCGCCCCCGGGAGCUUUUUUCCUCGAGCAA [G18C G32C U70G A89C]: the nonsense suppression was at most 0.026.

As for CUCUCGGUAGCCAAGUUGGUUUAAGGCGCAAGACUUUAAUUUAUCACUACGAAAUCUUGAGAUCGGGCGUUGGACUCGCCCCGGGGAGAUUUUUUCCUCGAGCAA [C72G C83G], the nonsense suppression is at most 0.026.

CUCUCGGUAGCUCAGUUGGAUUAAGGCGCAAGACUUUAAUUUAUCACUACGAAAUCUUGAGAUCGGGCGUUCGACUCGCCCCCGGGAGAUUUUUUCCUCGAGCAA [C12U A13C U20A]: the nonsense suppression was at most 0.026.

With CUCUCGGUAGCCAAGUUGGUUUAAGGCGCAAGACUUUAAUUUAUCACUACGAAGUCUUGAGAUCAGGCGUUCGACUCGCCCCCGGGAGAUUUUUUCCUCGAGCAA [A54G G65A], the nonsense suppression was at most 0.026.

Take CUCUCGGUAGGCAAGUUGGUUUAAGGCGCAAGACUUUAAUUUAUCACUACGAAAUCUUGAGAUCGGUCGUUCGACUCGCACCCGGGAGAUUUUUUCCUCGAGCAA [C11G G67U C80A]: the nonsense suppression is at most 0.026.
